We go through 62 compounds from PubChem BioAssay AID1963576 (National Center for Advancing Translational Sciences (NCATS), 2024).

Out of some 46,000 compounds screened, about 60 (0.1%) were called active. Inconclusive results (about 3%) are left out. The call rests on the fitted dose curve; in most records, active means well fitted inhibition curve with a large enough effect; inconclusive means small, poorly fitted or top-dose-only effect; inactive means no such curve, though single readings can be large or run the other way. Some of the results follow.

The nature of this assay: Primary qHTS assay for Inhibitors of ovarian cancer metastasis using an organotypic tumor microenvironment (TME) model. Further: nearly all actives have a fitted effect of over 65% in size.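 On activity change, negative = inhibition: plate controls were DMSO wells for no effect and tomatine positive control wells for full effect.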 The following applies: SKOV3ip1-GFP adhesion/invasion on 3D omental model, fluorescence; series mostly up to 45.8 µM; activity change, negative = inhibition: at the top concentration. In a few lines:
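qHTS, 4-pt dose (0.36-46 umol/L); SKOV3ip1-GFP, 1,200 cells/well, no FBS; primary omental fibroblast/mesothelial co-culture 48 h pre-grown; 2 h RT + 16 h 37 C; PBS wash, 4% PFA; GFP count 488/509 nm.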
A general note: qHTS replaces the single test concentration by a dilution series.
As to `COc1ccc(NC(=O)Nc2nnc(N3CCCCCC3)s2)cc1`, the “activity change, negative = inhibition” value is inactive: 0.123%. As to `CN(C)CCNC(=O)C1CCN(c2nc3ccccc3[nH]2)CC1`, the “activity change, negative = inhibition” value was inactive: 16.1%. Take `Cc1ccc(CNC(=O)Cn2c3ncccc3c(=O)n2-c2ccccc2)cc1`: the “activity change, negative = inhibition” value was inactive: 62.3%.

In the case of `O=C(CSc1ccc(-c2ccccn2)nn1)Nc1ccc(F)c(F)c1`, the compound was called inactive. As for `Cc1ccc(C(=O)Nc2c(-c3ccccc3)nc3ccccn23)cc1C`, the “activity change, negative = inhibition” value is inactive: -18.8%. On to `Cc1nn(-c2ccc(F)cc2)c(-n2cccc2)c1C(=O)N1CCN(c2ccc(F)cc2)CC1`, for which the outcome was inactive. As to `CNC[C@H](O)c1cccc(O)c1`, the “activity change, negative = inhibition” value is inactive: 0.338%. On the same count and under the same terms, to `COc1ccc(NC(=O)c2nnn(Cc3ccccc3C)c2N)c(OC)c1` belongs inactive: 6.51%; to `O=C(O)[C@H]1O[C@H](Oc2cc3oc(-c4ccccc4)cc(=O)c3c(O)c2O)[C@H](O)[C@@H](O)[C@H]1O`, inactive: 3.39%. The same measure, in the same setting: the value for `CCCC(=O)NC1CC(=O)N(c2ccc3c(c2)OCCO3)C1` (configuration not stated) was inactive: 10.2%. Turning to `COc1ccc(S(=O)(=O)Nc2ccc(O)c(Sc3nc4ccccc4s3)c2)cc1`, the “activity change, negative = inhibition” value is inactive: -2.91%. Take `O=C(Nc1cccc(Cl)c1)N1Cc2ccccc2Oc2ncccc21`: the “activity change, negative = inhibition” value was inactive: -4.01%. Consider `CCc1ccc(NC(=O)CN2C(=O)C(=O)c3ccccc32)cc1`, for which the “activity change, negative = inhibition” value was inactive: 8.12%. In the case of `CC(=O)c1ccc(S(=O)(=O)N2CCC(Oc3ccc(-n4cnnn4)cc3)CC2)cc1`, the compound was classed as inactive.

On to `O=C(Nc1cccc(C(=O)OCc2cc(=O)n3nc(C4CC4)sc3n2)c1)c1ccc(F)cc1`, for which the “activity change, negative = inhibition” value was inactive: -3.09%.

As to `OCc1ccc(-c2ccc(-c3ccc(CO)s3)o2)s1`, the result was inactive. As for `Cc1c(C(=O)N(C)C)sc2c1c(=O)n(-c1ccc(Cl)c(Cl)c1)c(=O)n2Cc1ccc(F)cc1`, the “activity change, negative = inhibition” value was inactive: -28.1%.

For `COc1ccccc1C1C(C(N)=O)=C(C)Nc2nc(SCc3ccccc3F)nn21` (configuration not stated), the “activity change, negative = inhibition” value was inactive: 21.9%. As for `Cc1ccccc1CCNC(=O)c1cc2ccccn2n1`, the “activity change, negative = inhibition” value was inactive: 4.92%. The same measure, in the same setting: to `COc1ccc(NC(=O)CCS(=O)(=O)c2cc(Br)cc3c2N(C(C)=O)CC3)c(OC)c1` belongs inactive: -8.48%; to `O=c1c(-c2ccc(O)cc2)coc2cc(O)cc(O)c12`, inactive: 18.7%. For the compound `CN(C(=O)CSc1nc2ccc(NC(=O)c3ccc(F)cc3)cc2s1)c1ccccc1`, the “activity change, negative = inhibition” value was inactive: -21.3%. For `CCOc1ccccc1NC(=O)c1ccc2oc(=O)c(S(=O)(=O)c3ccc(F)cc3)cc2c1`, the compound was called inactive. Regarding `COc1ccc(-c2onc(C)c2C)cc1S(=O)(=O)NC1CCCCC1`, the “activity change, negative = inhibition” value is inactive: 2.6%. As to `CCn1cc(C(=O)N(C)Cc2ccccc2)c(=O)c2cc(S(=O)(=O)N3CCCCC3)ccc21`, the “activity change, negative = inhibition” value is inactive: 5.03%.

For the compound `Cc1cccc(N2CCN(C(=O)Cn3nc(C)c4sc5ccccc5c4c3=O)CC2C)c1` (configuration not stated), the “activity change, negative = inhibition” value was inactive: 3.84%. As to `Cn1c(=O)n(C)c2cc(CNCc3ccc(C(=O)O)cc3)ccc21`, the “activity change, negative = inhibition” value was inactive: 3.65%.

For `Cc1c(C(=O)N2CCOCC2)oc2c1-c1nn(CC(=O)NCc3ccccc3)cc1CC2`, the “activity change, negative = inhibition” value is inactive: 7.86%. Same read-out and setting: the value for `CSc1ccc(Nc2nn(-c3ccc(OC(F)(F)F)cc3)nc2C(C)=O)cc1` was inactive: 2.09%; that for `Cc1cccc(N2CCN(c3c(CN4CCCC4)c(=O)oc4ccccc34)CC2)c1C` was inactive: 5.92%. With `Cc1ccc(CN2C(=O)C3(SCC(=O)N3c3ccc(C)c(C)c3)c3ccccc32)cc1` (configuration not stated), the “activity change, negative = inhibition” value was inactive: 3.35%. For `COC(=O)C1=C(c2ccccc2)c2ccccc2S(=O)(=O)N1CC(=O)Nc1cc(C)ccc1C`, the outcome was inactive.

Consider `CCOC(=O)Cn1nc(N2CCN(c3ccc(F)cc3)CC2)ccc1=O`, for which the “activity change, negative = inhibition” value was inactive: 9.23%.

In the case of `CCOC(=O)c1cccc(NC(=O)CCc2c(C)nc3c4cccnc4nn3c2C)c1`, the “activity change, negative = inhibition” value is inactive: 17.5%. As for `COc1ccccc1Cn1c(CNS(=O)(=O)c2c(C)cc(C)cc2C)nc2cccnc21`, the “activity change, negative = inhibition” value was inactive: -18.3%. `Cc1ccc2c(c1)N(CC(=O)NCc1cccc(Cl)c1)C(=O)c1cccnc1O2`: the result was inactive. In the case of `C[C@H](NC(=O)Cc1cc(F)cc(F)c1)C(=O)N[C@@H]1C(=O)N(C)c2ccccc2-c2ccccc21`, the “activity change, negative = inhibition” value is inactive: 37.9%.

For the compound `CCOCCn1ccc2c(OCC(=O)Nc3cc(C(F)(F)F)ccc3Cl)cccc2c1=O`, the “activity change, negative = inhibition” value is inactive: 1.68%. For `Cc1ccccc1OCC(=O)Nc1ccc(S(=O)(=O)Nc2ncccn2)cc1`, the result was inactive. Take `CCOc1ccc(CCNC(=O)c2cc3cc4ccc(OC)cc4nc3s2)cc1OCC`: the result was inactive. In the case of `Cc1cccc(C(=O)Nc2cc3c(cc2N2CCCCC2)n(C)c(=O)n3C)c1`, the “activity change, negative = inhibition” value was inactive: -7.62%.

As for `CCn1cc(S(=O)(=O)c2ccccc2)c(=O)c2cc(F)c(N3CCCCCC3)cc21`, the “activity change, negative = inhibition” value is inactive: 0.0686%. As for `CCOCCCn1c(=N)c(S(=O)(=O)c2ccccc2)cc2c(=O)n3cc(C)ccc3nc21`, the outcome was inactive.

As to `CC(=O)c1cccc(NC(=O)c2ccc3c(c2)CCN3S(=O)(=O)c2ccccc2)c1`, the “activity change, negative = inhibition” value is inactive: 6.47%. In the case of `Cc1ccc(-n2nc(C)c3c(C)c(CCC(=O)NCc4cccc(Cl)c4)c(C)nc32)cc1C`, the compound was classed as inactive. For `COc1ccc(C2NC(=O)N(C)C3=C2C(=O)N(c2ccccc2)C3)cc1` (configuration not stated), the “activity change, negative = inhibition” value was inactive: -8.6%.

For the compound `O=C(O)c1ccc(Nc2ncc3c(n2)-c2ccc(Cl)cc2C(c2c(F)cccc2F)=NC3)cc1`, the “activity change, negative = inhibition” value is inactive: 10.5%.

Turning to `COc1ccc(-c2nc3c(C#N)c[nH]n3c2NC2CCCCC2)cc1`, the “activity change, negative = inhibition” value was inactive: -12.5%. On the same count and under the same terms, the value for `CCC12CN3CC(C)(CN(C1)C3c1c(C)[nH]c3ccccc13)C2=O` (configuration not stated) was inactive: 5.49%. Consider `CCOc1ccc(C2C(C(=O)Nc3ccc(C)cc3C)=C(C)Nc3c(C(=O)Nc4ccc(C)cc4)cnn32)cc1OC` (configuration not stated), for which the result was inactive. In the case of `COc1ccc(CCNC(=O)C(C)n2nc(C)c3sc4ccccc4c3c2=O)cc1OC` (configuration not stated), the “activity change, negative = inhibition” value was inactive: 0.725%. `COc1ccc(-c2nc(C)c(CCNC(=O)c3cccc(C)c3)s2)cc1OC`: the “activity change, negative = inhibition” value was inactive: -1.46%. Take `COCCNC(=O)C(=O)Nc1ccc2nc3n(c(=O)c2c1)CCCCC3`: the “activity change, negative = inhibition” value is inactive: 2.72%. Take `COc1ccc(C(=O)Oc2c(Sc3ccc(C)cc3)c(C)nn2C(C)(C)C)c(OC)c1`: the call was inactive. Same read-out and setting: the value for `Cc1cccc(-c2cc(NC(=O)c3ccccc3C)n(-c3ccccc3)n2)c1` was “inactive”. Consider `Cc1ccc(C)c(N2CCN(C(=O)CN3C(=O)COc4ccc(S(=O)(=O)N5CCOCC5)cc43)CC2)c1`, for which the “activity change, negative = inhibition” value was inactive: 6.84%. Consider `CCOc1ccc(NC(=O)c2cccc(N3CCCS3(=O)=O)c2)cc1`, for which the compound was classed as inactive. Take `Cc1ccc(C)c(CNC(=O)C2CCCCN2S(=O)(=O)c2ccc(F)cc2)c1` (configuration not stated): the “activity change, negative = inhibition” value was inactive: 3.58%. In the case of `CCCCC(=O)Nc1nnc(S(=O)(=O)N2CCCCCC2)s1`, the “activity change, negative = inhibition” value was inactive: 4.63%. Take `COC(=O)c1cc2sccc2n1Cc1ccc(F)cc1`: the compound was classed as inactive.

Take `O=C(Nc1ccc(F)c(Cl)c1)C1CCCN(c2ncnc3onc(-c4ccc(F)cc4)c23)C1` (configuration not stated): the “activity change, negative = inhibition” value was inactive: -3.98%. Same read-out and setting: the value for `CCC(=O)N1c2ccccc2CC1C(=O)NCCCN1CCN(c2ccccc2)CC1` (configuration not stated) was inactive: -8.61%.
